The other results are listed elsewhere or left out. The full chains were built here from the parent and the listed change. Values near 0.05 are background.
B1: TEV protease; numbered along this chain (parent)
chain: MGESLFKGPRDYNPISSSICHLTNESDGHTTSLYGIGFGPFIITNKHLFRRNNGTLVVQSLHGVFKVKDTTTLQQHLVDGRDMIIIRMPKDFPPFPQKLKFREPQREERICLVTTNFQTKSMSSMVSDTSCTFPSGDGIFWKHWIQTKDGQCGSPLVSTRDGFIVGIHSASNFTNTNNYFTSVPKNFMELLTNQEAQQWVSGWRLNADSVLWGGHKVFMVKPEEPFQPVKEATQL

Variants of: B1
Assay: raw area under fraction-flipped curve 0-4 h after induction (AUC4h, not background-subtracted), DNA-recorder readout of cleavage of the substrate (dimensionless); higher = more cleavage of the substrate by the protease variant
Settings: temperature: 34 °C; time window: 0-4 h after rhamnose induction
Description: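 In vivo DNA recorder in E. coli TOP10(DE3) ΔrhaA at 34 °C. Each TEVp single-site mutant (parent TEVp 0) is paired with a single-site variant of the 7-mer TEVs (canonical ENLYFQ|S). The substrate sits between flexible linkers in a Bxb1-sfGFP-TEVs-SsrA fusion, so cleavage stabilises Bxb1 and speeds flipping of a recombination array, read by NGS. The value is the raw area under the fraction-flipped curve over 0-4 h after rhamnose induction (AUC4h), with ≥20 reads per time point. It is not background-subtracted; inactive controls average about 0.047.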
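Also: Bxb1 expression induced with 0.2% (w/v) L-rhamnose at OD600 near 0.5, cultures sampled hourly, flipped fraction per protease–substrate barcode pair counted by paired-end Illumina sequencing.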

## MGESLFKGPRDYNPISSSICHLTNESDGHTTSLYGIGFGPFIITNKHLFRRNNGTLVVQSLHGVFKVKDTTTLQQHLVDGRDMIIIRMPKDFPPFPQKLKFREPQREERICLVTTNFQTKSMSSMVSDTSCTFPSGDGIFWKHWIQTKDGQCGSPLVSTRDGFIVGIHSASNFTNTNNYFTSVPKNFMELLTNQEAQQRVSGWRLNADSVLWGGHKVFMVKPEEPFQPVKEATQL [W199R]
  area with substrate ENLYFAS: 0.0625
  area with substrate ENLYFCS: 0.066
  area with substrate ENLYFES: 0.066
  area with substrate ENLYFFS: 0.0727
  area with substrate ENLYFGS: 0.0805
  area with substrate ENLYFIS: 0.0651
  area with substrate ENLYFKS: 0.0609
  area with substrate ENLYFMS: 0.0596
  area with substrate ENLYFNS: 0.109
  area with substrate ENLYFPS: 0.0602
  area with substrate ENLYFRS: 0.06
  area with substrate ENLYFSS: 0.066
  area with substrate ENLYFWS: 0.0598
  area with substrate ENLYFYS: 0.0478

## MGESLFKGPRDYNPISSSICHLTNESDGHTTSLYGIGFGPFIITNKHLFRRNNGTLVVQSLHGVFKVKDTTTLQQHLVDGRDMIIIRMPKDFPPFPQKLKFREPQREERICLVTTNFQTKSMSSMVSDTSCTFPSGDGIFWKHWIQTKDGQCGSPLVSTRDGFIVGIHSASNFTNTNNYFTSVPKNFMELLTNQEAQRWVSGWRLNADSVLWGGHKVFMVKPEEPFQPVKEATQL [Q198R]
  area with substrate ENLYFAS: 0.07
  area with substrate ENLYFES: 0.0566
  area with substrate ENLYFFS: 0.0576
  area with substrate ENLYFHS: 0.0569
  area with substrate ENLYFIS: 0.0619
  area with substrate ENLYFKS: 0.0629
  area with substrate ENLYFLS: 0.0558
  area with substrate ENLYFMS: 0.0631
  area with substrate ENLYFPS: 0.0567
  area with substrate ENLYFRS: 0.0645
  area with substrate ENLYFSS: 0.0625
  area with substrate ENLYFTS: 0.0511
  area with substrate ENLYFWS: 0.0587
  area with substrate ENLYFYS: 0.0684

## MGESLFKGPRDYNPISSSICHLTNESDGHTTSLYGIGFGPFIITNKHLFRRNNGTLVVQSLHGVFKVKDTTTLQQHLVDGRDMIIIRMPKDFPPFPQKLKFREPQREERICLVTTNFQTKSMSSMVSDTSCTFPSGDGIFWKHWIQTKDGQCGSPLVSTRDGFIVGIHSASNFTNTNNYFTSVPKNFMELLTNQEAQWWVSGWRLNADSVLWGGHKVFMVKPEEPFQPVKEATQL [Q198W]
  area with substrate ENLYFAS: 0.055
  area with substrate ENLYFCS: 0.0566
  area with substrate ENLYFDS: 0.0524
  area with substrate ENLYFES: 0.0503
  area with substrate ENLYFFS: 0.0762
  area with substrate ENLYFHS: 0.0585
  area with substrate ENLYFIS: 0.0472
  area with substrate ENLYFKS: 0.0733
  area with substrate ENLYFMS: 0.064
  area with substrate ENLYFNS: 0.0633
  area with substrate ENLYFPS: 0.0641
  area with substrate ENLYFRS: 0.059
  area with substrate ENLYFSS: 0.0429
  area with substrate ENLYFTS: 0.0665
  area with substrate ENLYFWS: 0.0521
  area with substrate ENLYFYS: 0.0608

## MGESLFKGPRDYNPISSSICHLTNESDGHTTSLYGIGFGPFIITNKHLFRRNNGTLVVQSLHGVFKVKDTTTLQQHLVDGRDMIIIRMPKDFPPFPQKLKFREPQREERICLVTTNFQTKSMSSMVSDTSCTFPSGDGIFWKHWIQTKDGQCGSPLVSTRDGFIVGIHSASNFTNTNNYFTSVPKNFMELLTNQEAQEWVSGWRLNADSVLWGGHKVFMVKPEEPFQPVKEATQL [Q198E]
  area with substrate ENLYFAS: 0.0596
  area with substrate ENLYFCS: 0.0628
  area with substrate ENLYFDS: 0.0428
  area with substrate ENLYFES: 0.06
  area with substrate ENLYFFS: 0.073
  area with substrate ENLYFIS: 0.0592
  area with substrate ENLYFKS: 0.0597
  area with substrate ENLYFLS: 0.0414
  area with substrate ENLYFMS: 0.0664
  area with substrate ENLYFNS: 0.0685
  area with substrate ENLYFPS: 0.053
  area with substrate ENLYFRS: 0.0666
  area with substrate ENLYFSS: 0.0551
  area with substrate ENLYFTS: 0.0514
  area with substrate ENLYFWS: 0.0492
  area with substrate ENLYFYS: 0.0644

## MGESLFKGPRDYNPISSSICHLTNESDGHTTSLYGIGFGPFIITNKHLFRRNNGTLVVQSLHGVFKVKDTTTLQQHLVDGRDMIIIRMPKDFPPFPQKLKFREPQREERICLVTTNFQTKSMSSMVSDTSCTFPSGDGIFWKHWIQTKDGQCGSPLVSTRDGFIVGIHSASNFTNTNNYFTSVPKNFMELLTNQEAQCWVSGWRLNADSVLWGGHKVFMVKPEEPFQPVKEATQL [Q198C]
  area with substrate ENLYFAS: 0.0606
  area with substrate ENLYFCS: 0.0547
  area with substrate ENLYFDS: 0.064
  area with substrate ENLYFES: 0.0731
  area with substrate ENLYFFS: 0.0692
  area with substrate ENLYFGS: 0.0635
  area with substrate ENLYFHS: 0.0515
  area with substrate ENLYFIS: 0.0513
  area with substrate ENLYFKS: 0.0606
  area with substrate ENLYFLS: 0.0601
  area with substrate ENLYFMS: 0.0594
  area with substrate ENLYFNS: 0.0566
  area with substrate ENLYFPS: 0.0634
  area with substrate ENLYFRS: 0.0522
  area with substrate ENLYFTS: 0.0553
  area with substrate ENLYFVS: 0.0616
  area with substrate ENLYFWS: 0.0554
  area with substrate ENLYFYS: 0.0547

## MGESLFKGPRDYNPISSSICHLTNESDGHTTSLYGIGFGPFIITNKHLFRRNNGTLVVQSLHGVFKVKDTTTLQQHLVDGRDMIIIRMPKDFPPFPQKLKFREPQREERICLVTTNFQTKSMSSMVSDTSCTFPSGDGIFWKHWIQTKDGQCGSPLVSTRDGFIVGIHSASNFTNTNNYFTSVPKNFMELLTNQEAQDWVSGWRLNADSVLWGGHKVFMVKPEEPFQPVKEATQL [Q198D]
  area with substrate ENLYFAS: 0.0615
  area with substrate ENLYFCS: 0.0577
  area with substrate ENLYFDS: 0.0482
  area with substrate ENLYFHS: 0.0531
  area with substrate ENLYFIS: 0.0629
  area with substrate ENLYFKS: 0.072
  area with substrate ENLYFMS: 0.0743
  area with substrate ENLYFRS: 0.0652
  area with substrate ENLYFSS: 0.0629
  area with substrate ENLYFTS: 0.0591
  area with substrate ENLYFVS: 0.0562
  area with substrate ENLYFWS: 0.0569
  area with substrate ENLYFYS: 0.0678

## MGESLFKGPRDYNPISSSICHLTNESDGHTTSLYGIGFGPFIITNKHLFRRNNGTLVVQSLHGVFKVKDTTTLQQHLVDGRDMIIIRMPKDFPPFPQKLKFREPQREERICLVTTNFQTKSMSSMVSDTSCTFPSGDGIFWKHWIQTKDGQCGSPLVSTRDGFIVGIHSASNFTNTNNYFTSVPKNFMELLTNQEAQQWVSHWRLNADSVLWGGHKVFMVKPEEPFQPVKEATQL [G202H]
  area with substrate ENLYFAS: 0.0602
  area with substrate ENLYFES: 0.0586
  area with substrate ENLYFFS: 0.0461
  area with substrate ENLYFGS: 0.0652
  area with substrate ENLYFHS: 0.0521
  area with substrate ENLYFIS: 0.0572
  area with substrate ENLYFKS: 0.0535
  area with substrate ENLYFMS: 0.0645
  area with substrate ENLYFNS: 0.0595
  area with substrate ENLYFPS: 0.0549
  area with substrate ENLYFSS: 0.0553
  area with substrate ENLYFTS: 0.0719

## MGESLFKGPRDYNPISSSICHLTNESDGHTTSLYGIGFGPFIITNKHLFRRNNGTLVVQSLHGVFKVKDTTTLQQHLVDGRDMIIIRMPKDFPPFPQKLKFREPQREERICLVTTNFQTKSMSSMVSDTSCTFPSGDGIFWKHWIQTKDGQCGSPLVSTRDGFIVGIHSASNFTNTNNYFTSVPKNFMELLTNQEAQQWVSYWRLNADSVLWGGHKVFMVKPEEPFQPVKEATQL [G202Y]
  area with substrate ENLYFAS: 0.063
  area with substrate ENLYFCS: 0.0444
  area with substrate ENLYFES: 0.0647
  area with substrate ENLYFFS: 0.0749
  area with substrate ENLYFGS: 0.0508
  area with substrate ENLYFHS: 0.0578
  area with substrate ENLYFIS: 0.0523
  area with substrate ENLYFKS: 0.118
  area with substrate ENLYFMS: 0.064
  area with substrate ENLYFNS: 0.0542
  area with substrate ENLYFSS: 0.0386
  area with substrate ENLYFTS: 0.0731
  area with substrate ENLYFVS: 0.0409
  area with substrate ENLYFWS: 0.0641
  area with substrate ENLYFYS: 0.0724

## MGESLFKGPRDYNPISSSICHLTNESDGHTTSLYGIGFGPFIITNKHLFRRNNGTLVVQSLHGVFKVKDTTTLQQHLVDGRDMIIIRMPKDFPPFPQKLKFREPQREERICLVTTNFQTKSMSSMVSDTSCTFPSGDGIFWKHWIQTKDGQCGSPLVSTRDGFIVGIHSASNFTNTNNYFTSVPKNFMELLTNQEAQQWVSGWRLSADSVLWGGHKVFMVKPEEPFQPVKEATQL [N206S]
  area with substrate ENLYFAS: 0.0609
  area with substrate ENLYFCS: 0.0491
  area with substrate ENLYFES: 0.0531
  area with substrate ENLYFFS: 0.0685
  area with substrate ENLYFHS: 0.0534
  area with substrate ENLYFIS: 0.0532
  area with substrate ENLYFMS: 0.0576
  area with substrate ENLYFNS: 0.054
  area with substrate ENLYFPS: 0.0591
  area with substrate ENLYFRS: 0.0692
  area with substrate ENLYFTS: 0.0612
  area with substrate ENLYFVS: 0.0576

— the supplement of paper PMC12217912
